Data as given in ChEMBL document CHEMBL5506067, “Searching for Synthetic Opioid Rescue Agents: Identification of a Potent Opioid Agonist with Reduced Respiratory Depression” (J Med Chem, 2024).

What was measured:
Type in all cases: functional, cell-based
Mu-type opioid receptor [1] = target: T1, Mu-type opioid receptor (Homo sapiens, UniProt P35372); test: Agonist activity at human MOR expressed in CHO-K1 cells assessed as decrease in cAMP level incubated for 30 mins in presence of forskolin by HitHunter cAMP analysis
Mu-type opioid receptor [2] = target: T1, Mu-type opioid receptor; test: Agonist activity at human MOR expressed in CHO-K1 cells assessed as decrease in beta-arrestin 2 recruitment incubated for 90 mins by HitHunter cAMP analysis
[3] = target: Delta-type opioid receptor (Homo sapiens, UniProt P41143); test: Partial agonist activity at human DOR expressed in CHO-K1 cells assessed as decrease in cAMP level incubated for 30 mins in presence of forskolin by HitHunter cAMP analysis
[4] = target: T2, Kappa-type opioid receptor (Homo sapiens, UniProt P41145); test: Agonist activity at human KOR expressed in CHO-K1 cells assessed as decrease in cAMP level incubated for 30 mins in presence of forskolin by HitHunter cAMP analysis
Nociceptin receptor = Nociceptin receptor (Homo sapiens, UniProt P41146); test: Agonist activity at human NOR expressed in CHO-K1 cells assessed as decrease in cAMP level incubated for 30 mins in presence of forskolin by HitHunter cAMP analysis
[5] = target: T2, Kappa-type opioid receptor; test: Antagonist activity at human KOR expressed in CHO-K1 cells assessed as cAMP level preincubated for 15 mins followed by agonist addition and measured after 30 mins by HitHunter cAMP analysis

T1 sequence (P35372 whole entry): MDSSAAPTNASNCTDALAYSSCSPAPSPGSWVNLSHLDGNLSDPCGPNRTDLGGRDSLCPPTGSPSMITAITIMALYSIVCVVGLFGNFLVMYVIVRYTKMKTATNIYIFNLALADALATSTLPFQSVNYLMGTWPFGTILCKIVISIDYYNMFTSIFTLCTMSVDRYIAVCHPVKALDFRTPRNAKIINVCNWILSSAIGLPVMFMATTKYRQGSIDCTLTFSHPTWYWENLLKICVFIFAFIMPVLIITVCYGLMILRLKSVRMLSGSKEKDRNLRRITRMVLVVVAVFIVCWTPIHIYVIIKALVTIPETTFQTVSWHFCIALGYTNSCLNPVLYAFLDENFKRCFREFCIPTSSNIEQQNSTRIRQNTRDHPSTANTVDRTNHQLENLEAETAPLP
T2 sequence (P41145 whole entry): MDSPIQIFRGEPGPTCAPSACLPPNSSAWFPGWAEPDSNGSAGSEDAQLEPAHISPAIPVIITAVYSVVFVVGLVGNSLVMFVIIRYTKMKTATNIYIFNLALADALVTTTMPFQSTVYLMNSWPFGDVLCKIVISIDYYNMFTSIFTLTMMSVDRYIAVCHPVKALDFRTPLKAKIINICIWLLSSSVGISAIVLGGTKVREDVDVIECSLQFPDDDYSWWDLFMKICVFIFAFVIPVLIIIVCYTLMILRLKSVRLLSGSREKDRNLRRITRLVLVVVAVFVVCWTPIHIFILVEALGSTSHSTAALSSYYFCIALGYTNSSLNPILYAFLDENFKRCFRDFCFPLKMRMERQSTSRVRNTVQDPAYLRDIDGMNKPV
Chain of UniProt P41146 (P41146 whole entry): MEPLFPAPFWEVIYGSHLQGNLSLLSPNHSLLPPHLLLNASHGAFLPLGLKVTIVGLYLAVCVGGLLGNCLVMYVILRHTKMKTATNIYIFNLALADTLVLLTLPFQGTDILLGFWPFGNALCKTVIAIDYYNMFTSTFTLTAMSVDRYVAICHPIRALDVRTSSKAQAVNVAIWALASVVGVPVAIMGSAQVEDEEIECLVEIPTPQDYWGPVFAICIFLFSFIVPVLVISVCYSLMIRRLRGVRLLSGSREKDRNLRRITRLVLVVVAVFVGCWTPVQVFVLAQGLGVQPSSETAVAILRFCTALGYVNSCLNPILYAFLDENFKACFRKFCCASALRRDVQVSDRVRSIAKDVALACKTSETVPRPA
Chain of UniProt P41143 (P41143 whole entry): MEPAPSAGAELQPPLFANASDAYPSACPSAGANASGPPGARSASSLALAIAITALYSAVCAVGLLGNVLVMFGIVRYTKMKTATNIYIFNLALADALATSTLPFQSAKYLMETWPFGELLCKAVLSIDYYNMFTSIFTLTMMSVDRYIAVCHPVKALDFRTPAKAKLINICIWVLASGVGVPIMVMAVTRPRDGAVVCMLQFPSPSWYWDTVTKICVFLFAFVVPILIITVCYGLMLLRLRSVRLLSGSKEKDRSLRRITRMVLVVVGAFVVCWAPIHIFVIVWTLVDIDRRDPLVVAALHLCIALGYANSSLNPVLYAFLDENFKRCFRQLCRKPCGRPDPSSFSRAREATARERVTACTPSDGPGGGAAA

SMILES | EC50 (Mu-type opioid receptor [1]) | EC50 (Mu-type opioid receptor [2]) | further results
Oc1cccc(N2[C@@H]3CC[C@H]2CNC3)c1 | 421 nM | – | –
COc1cccc(N2[C@@H]3CC[C@H]2CN(CCCc2ccccc2)C3)c1 | 392 nM | – | –
C[C@@H]1CN(CCCc2ccccc2)C[C@H](C)N1c1cccc(O)c1 | > 10000 nM | – | –
Oc1cccc(N2[C@@H]3CC[C@H]2CN(CC2CC2)C3)c1 | 517 nM | – | –
COc1ccc(N2[C@@H]3CC[C@H]2CN(CCCc2ccccc2)C3)cc1 | 1110 nM | – | –
C=CCN1C[C@H]2CC[C@@H](C1)N2c1cccc(O)c1 | 325 nM | – | –
Oc1cccc(CN2[C@@H]3CC[C@H]2CN(CCCc2ccccc2)C3)c1 | 213 nM | > 50000 nM | –
C[C@@H]1CN(c2cccc(O)c2)C[C@H](C)N1CCCc1ccccc1 | 84.2 nM | > 50000 nM | –
Oc1cccc(N2C[C@H]3CC[C@@H](C2)N3CCCc2ccccc2)c1 | 0.26 nM | 13.7 nM | EC50 [3]: 1.77 nM; EC50 [4]: > 10000 nM; EC50 (Nociceptin receptor): > 10000 nM; IC50 [5]: 96.6 nM
